Measurements published in paper PMC6919601, “Identification of Plasmodium dipeptidyl aminopeptidase allosteric inhibitors by high throughput screening” (PLoS ONE, 2019).
In all, about 110,000 compounds went through this assay and about 230 (0.21%) showed an effect of 50% or more. Some of the results follow.

Each compound was assayed against DPAP1 (Plasmodium falciparum, UniProt Q8IIJ9) (assay: primary screen, percent inhibition; read by cleavage of a fluorogenic dipeptide substrate; higher = more effect of the substance).
Set-up: species or system P. falciparum D10 trophozoite lysates; single well
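Further: 30 min substrate incubation versus DMSO and 10 µM JCP410 controls.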

Chain of DPAP1 (Q8IIJ9 whole entry, looked up): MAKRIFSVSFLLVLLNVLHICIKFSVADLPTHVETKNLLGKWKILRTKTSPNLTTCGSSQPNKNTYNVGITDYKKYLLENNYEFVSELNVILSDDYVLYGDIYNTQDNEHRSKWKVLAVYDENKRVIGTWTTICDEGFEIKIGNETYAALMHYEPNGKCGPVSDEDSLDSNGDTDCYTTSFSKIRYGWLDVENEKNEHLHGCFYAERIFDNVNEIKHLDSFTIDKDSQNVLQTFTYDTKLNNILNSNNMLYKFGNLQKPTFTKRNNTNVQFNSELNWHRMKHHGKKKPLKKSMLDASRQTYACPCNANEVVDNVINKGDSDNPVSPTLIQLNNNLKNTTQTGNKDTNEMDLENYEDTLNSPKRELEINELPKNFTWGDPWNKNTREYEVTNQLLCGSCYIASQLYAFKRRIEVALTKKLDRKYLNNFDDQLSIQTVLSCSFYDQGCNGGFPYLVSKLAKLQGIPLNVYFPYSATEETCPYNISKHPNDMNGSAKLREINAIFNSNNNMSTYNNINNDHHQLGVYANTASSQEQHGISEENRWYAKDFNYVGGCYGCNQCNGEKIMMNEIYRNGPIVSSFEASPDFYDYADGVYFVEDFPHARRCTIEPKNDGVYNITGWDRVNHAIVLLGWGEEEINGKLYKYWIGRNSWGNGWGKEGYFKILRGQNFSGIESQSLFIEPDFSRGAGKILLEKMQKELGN

Compound | % Inhibition @ 10 uM
COc1ccc(-c2nc3cc(NC(=O)c4ccco4)ccc3o2)cc1 | 6.4%
Cc1c(Br)c(C(=O)NCc2cc3ccccc3[nH]2)nn1C | 0.389%
COc1ccc(OC)c(N2Cc3cc(C)c(C)cc3C2)c1 | 1.64%
COc1ccc(/C=C(/NC(=O)c2ccc(Br)cc2)C(=O)Nc2cccc(C(=O)O)c2)cc1 | -1.06%
Cc1cc2nc(O)c(O)nc2cc1S(=O)(=O)N(Cc1ccccc1)C(C)C | -2.13%
COc1ccccc1OCc1nc(C#N)c(N2CCN(C)CC2)o1 | -2.75%
CCOc1ccc(OCc2cccc(C(=O)N3CCCCC3C)c2)cc1 (stereo not drawn) | -1.57%
CC(C)CNc1c(Cl)cnn(C)c1=O | -0.856%
COC(=O)c1c(NC(=O)C2CC2c2ccccc2)sc2c1CCCC2 (stereo not drawn) | -1.1%
CNC(=O)n1c(=O)sc2ccccc21 | 4.22%
CCOC(=O)c1cc2c3c(c(N4CCOCC4)nc2s1)COC(C)(C)C3 | -1.72%
CCc1ccc(C(C)NC(=O)Cc2ccccc2)cc1 (stereo not drawn) | -11%
COc1cc(C2=NOC(C(=O)N(C)Cc3ccccc3)C2)cc(OC)c1OC (stereo not drawn) | -0.431%
COC(=O)c1ccc(CSc2nnc(-c3ccccc3)o2)o1 | -2.75%
O=C(Cc1ccccc1)NC1(C(F)(F)F)C(=O)Nc2c1c(=O)[nH]c(=O)n2-c1ccc(F)cc1 (stereo not drawn) | -6.43%
O=C1c2ccc(F)cc2C(=O)N1CN1CCOCC1 | -5.4%
Cc1cc(NS(=O)(=O)c2ccc(NC(=O)COc3cc(C)c(Cl)c(C)c3)cc2)no1 | -4.63%
CCNC(=O)c1ccc2c(c1)sc1nc(-c3ccc(C)cc3)cn12 | 4.33%
CCCCNC(=O)Cn1sc2nc(C)cc(C)c2c1=O | 1.89%
Brc1cc2[nH]cnc2c2ccccc12 | -3.5%
O=C(/C=C/c1ccccc1)Nc1cc2ccccc2oc1=O | 4.35%
Cc1cccc(C)c1-n1nnnc1C(c1ccc(O)cc1)N(C)C (stereo not drawn) | -4.02%
CCC[C@H](NC(=O)C1(NC(=O)c2ccc(OC)cc2)CCCCC1)C(=O)c1nc2ccccc2o1 | -3.04%
O=C(CSc1nc(-c2cccs2)cc(C(F)(F)F)n1)NCc1ccncc1 | -2.09%
CCO/C(O)=C1\C(C)=NC2=C(C(=O)CC(C)(C)C2)C1c1c[nH]c2ccccc12 (stereo not drawn) | 1.54%
Cc1ccnc(NC(=O)C(C)c2cccc(C(=O)c3ccccc3)c2)n1 (stereo not drawn) | -1.52%

Compound | % Inhibition @ 10 uM
CC1C(c2ccc(Cl)cc2)=[N+]([O-])C(C)(C)N1O (stereo not drawn) | 1.84%
Cn1c(=O)[nH]c(=O)c2c1nc(N1CCN(CCO)CC1)n2Cc1ccccc1 | -2.84%
CC(C)C[C@H](NC(=O)c1cccc(-c2csc(N=C(N)N)n2)c1)C(=O)N[C@@H](CCCN=C(N)N)C(=O)O | -9.15%
N#CC1=C(SCC(=O)Nc2ccc(F)c(F)c2F)NC(=O)CC1c1ccccc1F (stereo not drawn) | 2.44%
O=c1c(-c2ccccc2)c(O)nc2n1CCCS2 | 3.81%
CC(OCCCc1ccccc1)n1ccnc1 (stereo not drawn) | -0.312%
CCCSc1nc(O)cc(=O)n1C1CCCCC1 | 0.658%
CC(C)C[C@H](NC(=O)c1ccc(CN)cc1)C(=O)N[C@@H](CCc1ccccc1)C(=O)CO | -5.64%
CNC(=O)/C(=C\c1ccco1)NC(=O)c1ccc(Br)cc1 | 2.38%
Cc1cc(/C=C2/NC(=O)N(Cc3ccccc3F)C2=O)c(C)n1-c1ccncc1 | -16.8%
c1ccc2sc(-n3cccc3)nc2c1 | -1.6%
CC1CN(C2=NC(=O)/C(=C/c3ccccc3)S2)CC(C)O1 (stereo not drawn) | -3.41%
COc1ccc(-c2ccc3c(N)c(C(=O)NCc4ccccc4)sc3n2)cc1 | 0.375%
Cc1nc2c(c(C)c1CCC(=O)NCCCN1CCOCC1)c(=O)n(C)c(=O)n2C | -6.91%
Cc1cc(NC(=O)CN2C(=O)c3ccccc3C2=O)[nH]n1 | 0.238%
C=CCNC1CC(=O)N(c2ccc(OC)cc2)C1=O (stereo not drawn) | -9.26%
CN(Cc1ccccc1)C1CCN(CCc2ccccc2)CC1 | 1.29%
COc1cc(CN2CCN(C(=O)c3cccc(F)c3)CC2)cc(OC)c1OC | 7.1%
CCc1ccc(/C=C2/C(=N)N3OC(C)=CC3=NC2=O)cc1 | -3.23%
CCc1ccccc1NC(=O)CCC(=O)O | -2.55%
CCCOc1ccc(NC(=N)Nc2nc(C)cc(C)n2)cc1 | 1.65%
CC(C)COc1ccc(C(=O)OCCN2CCCCC2)cc1 | -4.77%
CC1CN(Cc2coc3ccc(Cl)cc3c2=O)CC(C)O1 (stereo not drawn) | 0.472%
CC(C(=O)NC1CCCCCC1)n1c(=O)c2cccn2c2cccnc21 (stereo not drawn) | -5.07%
c1ccc(CN2CCC(N3CCCCCC3)CC2)cc1 | 1.57%
